Test results reported in patent publication US10214765B2, “Cell-permeable probes for identification and imaging of sialidases” (Academina Sinica, priority 2012, dated 2019).

Assays:
Assay in all cases: biochemical
[1] = molecular target: Neu3 (recombinant sialidase from human) (Homo sapiens, UniProt Q9UQ49)
[2] = molecular target: nanC (recombinant sialidase of S. pneumoniae) (Streptococcus pneumoniae, UniProt A0A0H2UQE4)
[3] = molecular target: Neu1 (recombinant sialidase from human) (Homo sapiens, UniProt Q99519)
[4] = molecular target: Neu4 (recombinant sialidase from human) (Homo sapiens, UniProt Q8WWR8)
[5] = molecular target: nanA (recombinant sialidase of S. pneumoniae) (Streptococcus pneumoniae, UniProt P62575)
[6] = molecular target: nanB (recombinant sialidase of S. pneumoniae) (Streptococcus pneumoniae serotype 4, UniProt Q54727)

UniProt Q9UQ49, sequence (Q9UQ49 whole entry): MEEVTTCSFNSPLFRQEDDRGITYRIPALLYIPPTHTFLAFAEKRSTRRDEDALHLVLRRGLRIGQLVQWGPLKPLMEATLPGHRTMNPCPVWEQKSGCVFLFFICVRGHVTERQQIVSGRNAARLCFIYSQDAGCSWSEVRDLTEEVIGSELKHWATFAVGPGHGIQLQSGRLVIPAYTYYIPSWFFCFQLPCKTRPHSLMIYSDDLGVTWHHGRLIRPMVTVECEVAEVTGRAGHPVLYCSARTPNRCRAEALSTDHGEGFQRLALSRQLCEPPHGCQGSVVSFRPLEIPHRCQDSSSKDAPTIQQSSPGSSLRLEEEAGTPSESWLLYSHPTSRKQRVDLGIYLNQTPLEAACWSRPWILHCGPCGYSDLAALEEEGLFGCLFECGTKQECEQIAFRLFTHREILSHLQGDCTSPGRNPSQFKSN

CC(=O)N[C@H]1[C@H]([C@H](O)[C@H](O)CO)OC(C(=O)O)=C[C@@H]1O [DANA, 2,3-didehydro-2-deoxy-N-acetylneuraminic acid]
IC50 [1]: 2.4 ± 0.6 µM
IC50 ([2]; nanC, MUNANA substrate): > 100 µM

C#CCCC(=O)NC1C(O)C(F)C(F)(C(=O)O)OC1[C@H](O)[C@H](O)CO (stereo partly drawn) [DFSA-5-yne, 5-(Pent-4-ynamido)-2,3,5-trideoxy-3-fluoro-D-erythro-β-L-manno-non-2-ulopyranosylonic fluoride]
IC50 [3]: 10.4 ± 2.3 µM
IC50 [1]: 5.3 ± 3.2 µM
IC50 [4]: 59.8 ± 1.3 µM
IC50 [5]: 0.3 ± 0.1 µM
IC50 [6]: 82 ± 22 µM
IC50 [2]: 42.8 ± 17.5 µM

CCOC(=O)C1=C[C@@H](OC(CC)CC)[C@H](NC(C)=O)[C@@H](N)C1 [Oseltamivir]
IC50 [3]: > 100 µM
IC50 [1]: > 100 µM
IC50 [4]: > 100 µM
IC50 [5]: 3.8 ± 2.6 µM
IC50 [6]: 14.2 ± 6.2 µM
IC50 [2]: > 100 µM

CC(=O)N[C@H]1[C@H]([C@H](O)[C@H](O)CO)OC(C(=O)O)=C[C@@H]1N=C(N)N [Zanamivir]
IC50 [3]: > 100 µM
IC50 [5]: > 100 µM
IC50 [6]: > 100 µM
IC50 [2]: > 100 µM

Like-named read-outs stand apart in the source and are kept apart here.
